# From the supplement of paper PMC3334620
# Whole data set: some 33,000 sequences, median “E-score (-0.5 to 0.5)” near -0.032, cut for the highest 2% near 0.36. The list shows a part of the results.
# Target: T1, Sko1 (UniProt Q02100)
# T1 sequence: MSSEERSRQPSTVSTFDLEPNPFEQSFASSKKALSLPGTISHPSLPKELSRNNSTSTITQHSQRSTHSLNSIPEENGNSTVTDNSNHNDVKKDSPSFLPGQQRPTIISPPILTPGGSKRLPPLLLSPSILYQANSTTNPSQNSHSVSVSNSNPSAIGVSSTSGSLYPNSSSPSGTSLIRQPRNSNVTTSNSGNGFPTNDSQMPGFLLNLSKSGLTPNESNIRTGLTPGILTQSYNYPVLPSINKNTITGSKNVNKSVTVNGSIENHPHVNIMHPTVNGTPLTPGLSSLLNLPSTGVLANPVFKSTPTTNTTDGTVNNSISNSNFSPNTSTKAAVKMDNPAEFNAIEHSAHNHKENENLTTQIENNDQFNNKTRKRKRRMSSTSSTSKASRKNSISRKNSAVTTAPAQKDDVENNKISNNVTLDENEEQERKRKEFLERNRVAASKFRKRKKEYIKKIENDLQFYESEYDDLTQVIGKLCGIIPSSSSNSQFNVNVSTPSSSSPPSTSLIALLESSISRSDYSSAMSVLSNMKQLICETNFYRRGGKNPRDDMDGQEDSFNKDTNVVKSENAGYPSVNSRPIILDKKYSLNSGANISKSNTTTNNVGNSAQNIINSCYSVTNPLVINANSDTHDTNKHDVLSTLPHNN
# Assay: PBM E-score (8-mer binding enrichment) (E-score (-0.5 to 0.5)); higher = stronger / more preferred TF binding; most listed sequences are background and not binding sites
# Details: protein concentration: 200 nM; construct: GST-full length
# Summary of the method: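 PURExpress in vitro transcription/translation supplied GST-tagged yeast transcription factors, either full-length or DNA-binding domain. Applied at about 100-200 nM to universal all-10-mer Agilent arrays double-stranded by primer extension, the bound protein was detected with fluorescent anti-GST. E-scores, modified Wilcoxon-Mann-Whitney statistics, were given by the Universal PBM Analysis Suite to ungapped eight-base words pooled with their reverse complements after masliner normalisation.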
row,Sequence,PBM E-score
1,ACGCTCTC,-0.0672
2,GGAAACGA,0.0328
3,AAGCAGCC,-0.247
4,AGAATTAA,0.0421
5,AATGCCAT,0.157
6,AACCGGTT,-0.161
7,TCCGCCGA,-0.17
8,CAGGTCAG,-0.171
9,GCAGGTCA,-0.155
10,AACCGGGT,-0.303
11,ACACAGAA,-0.0522
12,TATCCAGA,-0.0266
13,CCGGGCCG,-0.27
14,AACAGAAC,0.0202
15,CACCTTAC,0.0212
16,AGGCTCTG,-0.222
17,TAGAAGGA,-0.19
18,ACACATGA,0.203
19,ATTGATTC,0.167
20,ATAGCGTG,-0.023
21,AAATGGTG,0.0316
22,TCAACTGA,-0.0387
23,AGGATAGC,-0.103
24,ACCGTCTG,-0.0712
25,ATAGGTGC,-0.114

row,Sequence,PBM E-score
1,TCGTAGAA,-0.00376
2,AGGCATAG,-0.159
3,CATTACAG,-0.0317
4,CCCCGGCA,-0.251
5,CGAGATAA,0.168
6,CGGGTTAA,-0.056
7,GGGGTGTA,-0.118
8,CGCCATCA,0.0661
9,AGCACCTA,-0.127
10,CATGACGG,0.326
11,ACTGTATC,0.0294
12,AACGCACC,0.0328
13,ATACAGTC,-0.0477
14,AAAAGGGG,-0.292
15,GGAAATAA,0.143
16,ATCTTCGC,0.1
17,ATGGAATG,-0.0704
18,CGAAAACA,0.0568
19,CAGGCTAA,-0.0734
20,GTTACCTA,0.0877
21,CGAGAGCA,-0.0844
22,ATTTCCGC,-0.143
23,AGATCCGA,0.0339
24,AACCGGTC,-0.146
25,CTTGAAAA,0.0514

row,Sequence,PBM E-score
1,AATTTCCC,-0.108
2,ATCCCCTA,-0.217
3,AGACCGGA,-0.243
4,CGCGCCCG,-0.264
5,ACGCTCAA,0.0466
6,AGCACAAG,-0.102
7,AAGCCTGT,-0.105
8,CGACTGTC,-0.188
9,CGCCGCAC,-0.0811
10,CGCAAATC,-0.0189
11,CTGCCACA,-0.171
12,GCGAGCAA,-0.231
13,CTCTAAAC,0.0109
14,AACTCTAA,0.0874
15,GGATGATA,0.0855
16,CTGGCCAG,-0.0607
17,ACGAGATG,0.0948
18,ATGCGATG,-0.179
19,GCGTAAAA,0.279
20,GCTCTCTA,-0.189
21,CGTTGAAA,0.0808
22,CTTTTAGC,-0.0732
23,TCACCAAA,0.218
24,CCACTGAA,-0.0966
25,CATTAGCC,-0.188

row,Sequence,PBM E-score
1,AGCCGACC,-0.365
2,AGAGGGAA,-0.205
3,CCGCAACC,-0.2
4,AATCGTTG,0.0973
5,CGGCAGAG,-0.362
6,AAGTCATG,0.0701
7,ACACATTC,-0.111
8,CACTGAGA,-0.163
9,AAATGAGA,0.0455
10,ACCTGAAG,-0.223
11,GCGGACGA,-0.196
12,AGCGCGTA,0.281
13,AAATAGGT,0.0972
14,AGTAAACT,0.0547
15,ATCCCGAA,-0.0492
16,TAAATTGA,0.204
17,AGAGCATG,-0.147
18,AATGTTCT,0.112
19,GTAGTCTA,0.197
20,CTACTAAG,-0.133
21,TGCATACA,0.162
22,CGGTACTA,-0.112
23,CGGTCCTC,-0.296
24,CAGGTGAC,0.225
25,GGTCATGA,0.111

row,Sequence,PBM E-score
1,CGAAACTA,0.0675
2,CCTCGCGC,-0.173
3,AGTGCAAT,-0.122
4,ATCTAGAG,-0.0987
5,AGGCCCCG,-0.372
6,ATCTATGA,0.169
7,ATACCTGA,0.0856
8,CTCATAAA,0.0771
9,CCTAGACA,-0.254
10,CGATTTGC,-0.102
11,AGAGCTCA,-0.136
12,ACCTCATA,0.269
13,ATGTGTAG,-0.0138
14,CTCGTGTA,-0.0261
15,GGAGGTAA,-0.0922
16,GCGATCGC,0.0254
17,GGCTTGAC,-0.0288
18,ACAATGAA,0.1
19,AGCCGGTA,-0.186
20,CGCTGTGA,0.0399
21,CCCCCCAG,-0.399
22,GATTACAA,0.201
23,GGGACAGA,-0.242
24,ATTGGTCG,0.0274
25,TCAAGCGA,0.00776

row,Sequence,PBM E-score
1,CGCGACGC,-0.00271
2,CGTACTCA,0.203
3,CAAGACAC,0.0807
4,CCGGCGCA,-0.151
5,CTTGCAAG,-0.148
6,ATAGCGTA,0.336
7,ATATGTTA,0.122
8,TACCCTGA,-0.126
9,CTGACGAC,0.342
10,ACAGCATC,0.036
11,AATGAGGA,-0.158
12,CTGGACAG,-0.26
13,CCAATAGC,-0.187
14,CACACCTC,-0.177
15,ATTAATTG,0.22
16,ACGTTCCC,0.103
17,AGAATCTA,0.0424
18,AACTTGTG,0.113
19,CGTCCAAA,0.182
20,ATGGGAAG,-0.226
21,ATTTTAGG,0.175
22,AAACGATA,0.168
23,CACCGACA,-0.084
24,AGAGTGAG,-0.0544
25,CGGAGGAC,-0.2

row,Sequence,PBM E-score
1,AACGGGTA,-0.0593
2,AAAAGTAG,0.113
3,ACTTGTCA,-0.0956
4,AGCAAGAC,0.0222
5,GTGCCCGA,-0.0346
6,AAGTACTG,-0.00326
7,ACACGCCG,-0.00264
8,AAACACAA,0.156
9,ACATCCCG,-0.121
10,AGACGCGA,0.0267
11,CTTGCGTA,0.423
12,GCAGAAAC,0.159
13,AGATCGCG,0.125
14,AAGTTACG,0.359
15,GACACGCA,0.284
16,ACTAAAAG,-0.0606
17,GCTAGATA,-0.0211
18,TATAGTCA,0.198
19,GTATGGTA,0.118
20,CCAGACTC,-0.189
21,AAGCTGAG,-0.212
22,CTAAGAGA,-0.098
